# Assay results from PubChem BioAssay AID1745853 (National Center for Advancing Translational Sciences (NCATS), 2022).
# Where “and” joins values, the source holds several entries; their conditions need not be identical. Identical values can stand only once. This is one part of the list. These are further read-outs of the screen, such as a control signal, another cell line or another target. No call is given for them.
# Experiments:
# Test in all cases: Primary Screen for Target Class Profiling of Small Molecule Inhibitors of Methyltransferases
# [1] = molecular target: Glycine N-methyltransferase (Homo sapiens) (UniProt Q14749); details: purified enzyme, MTase-Glo SAH luminescence; measured here: GNMT inhibition; at 40 µM; stronger effect = lower value
# Outline: (§1)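 Each enzyme was reacted with SAM and its substrate, with compounds tested once at 40 uM; SAH formed was read by MTase-Glo luminescence.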
# [2] = molecular target: Guanidinoacetate N-methyltransferase (Homo sapiens) (UniProt Q14353); details: purified enzyme, MTase-Glo SAH luminescence; measured here: GAMT inhibition; at 40 µM; stronger effect = lower value
# Outline: as §1
# [3] = molecular target: Histamine N-methyltransferase (Homo sapiens) (UniProt P50135); details: purified enzyme, MTase-Glo SAH luminescence; measured here: HNMT inhibition; at 40 µM; stronger effect = lower value
# Outline: as §1
# [4] = molecular target: Nicotinamide N-methyltransferase (Homo sapiens) (UniProt P40261); details: purified enzyme, MTase-Glo SAH luminescence; measured here: NNMT inhibition; at 40 µM; stronger effect = lower value
# Outline: as §1
# [5] = molecular target: Phenylethanolamine N-methyltransferase (Homo sapiens) (UniProt P11086); details: purified enzyme, MTase-Glo SAH luminescence; measured here: PNMT inhibition; at 40 µM; stronger effect = lower value
# Outline: as §1
# On the % scale 0 is the no-effect control and ±100 the full control effect.
SMILES,"activity change, negative = inhibition [1] [%]","activity change, negative = inhibition [2]","activity change, negative = inhibition [3] [%]","activity change, negative = inhibition [4]","activity change, negative = inhibition [5]"
COc1cc2nccc(Oc3ccc(NC(=O)Nc4cc(C)on4)c(Cl)c3)c2cc1OC,-2.69,-0.241%,0.426,-37.7%,0.207%
CS(=O)(=O)N(C1CCOCC1)C1CN(C(=O)NCc2ccccc2)C1,-1.35,-0.726%,2.17,-2.58%,-0.237%
Cc1cc(CNC(=O)c2cc(C(C)C)n3ncnc3n2)c2[nH]c(C)c(C)c2c1,-5.2,-2.61%,-1.38,-4.58%,-2.96%
C=C1CC2C3(C)C(OC(C)=O)CC(=O)OC(C)(C)C3C(O)C(OC(C)=O)C2(C)C2C(=O)OC(C)C(=O)C12C (stereo not drawn),-0.073,-3.79%,6.12,-14.6%,-4.02%
Cc1c(Cl)cccc1N1C(=O)CSc2c(c3ccccc3n2C)C1C(=O)NCc1ccccc1 (stereo not drawn),11.3,1.06%,6.28,11.4%,10.3%
N[C@H]1CCCN(C(=O)c2cnc(C34CC5CC(CC(C5)C3)C4)[nH]c2=O)C1,-6.41,-9.87%,-5.97,-20.5%,-12.7%
CCCCCCCCCCCCCCC[C@H](O)[C@H](N)CO,-1.94,4%,-0.1,-11.6%,-1.66%
CNC(=O)c1cc(C)nc2onc(C3CCN(C(=O)NC4CCCC4)C3)c12 (stereo not drawn),-3.58,-4.64%,-1.58,-9.47%,-1.32%
C[N+](C)(C)CCO,2.18,14.8%,0.276,-1.25%,4.21%
CCC(C)NC(=O)c1ccc2c(=O)n(CC(C)C)c3nn(Cc4cccc(C)c4)c(=O)n3c2c1 (stereo not drawn),1.41,3.31%,8.18,-6.11%,2.44%
Cc1ccsc1C(=O)C1CCCN(Cc2ccc(OC(C)C)c(CO)c2)C1 (stereo not drawn),-4.29,0.967%,-3.45,-4.05%,3.14%
CC(C)CNC(=O)c1ccc2c(=O)n(C)c3nn(CC(=O)NCc4ccccc4)c(=O)n3c2c1,-0.813,4.58%,2.34,-0.917%,0.204%
O=C(NCc1ccccc1)N1CCCC(Cn2cnc3cccnc32)C1 (stereo not drawn),-4.31,0.345%,-1.92,-5.94%,-4.1%
CNC(=O)c1cccc(-c2ccc3c(N4CCOC[C@@H]4C)nc(N4CCOC[C@@H]4C)nc3n2)c1,-16.4,-6.43%,-5.71,-34.4%,-2.14%
O=C(CCc1conc1-c1ccc(F)cc1)NC1CCCCC1,-3.42,-6.48%,-1.13,-10.7%,-4.37%
COc1ccc(N2CCN(CCCNC(=O)Cn3c(=O)c4cccn4c4c(C)ccnc43)CC2)cc1,-13.8,-10.4%,-5.65,-26%,-8.88%
Cc1cc2[nH]c(=O)[nH]c2cc1S(=O)(=O)NC1CCCCC1,14,1.49%,11.5,1.11%,1.03%
COc1ccc2c(=O)n(CC(=O)N(C)Cc3cc(C)no3)ccc2c1OC,-0.651,2.29%,0.961,-4.55%,-10.1%
O=C(Nc1ccccc1)N1CCC(N2CC3CCCN3C2=O)CC1 (stereo not drawn),-8.91,-7.7%,-5.21,-12.5%,-8.55%
CN(C)CCOC(C)(c1ccccc1)c1ccccn1 (stereo not drawn),5.01,13%,6.46,-0.329%,8.86%
COc1ccc(CN2C(=O)c3ccc(-c4ccco4)n3CC2(C)C(=O)NC2CCC(C)CC2)cc1 (stereo not drawn),0.61,1.19%,4.73,-0.462%,-0.025%

SMILES,"activity change, negative = inhibition [1] [%]","activity change, negative = inhibition [2]","activity change, negative = inhibition [3] [%]","activity change, negative = inhibition [4]","activity change, negative = inhibition [5]"
COc1cccc(N2CCN(C3=Nc4c(F)cccc4[C@H](CC(=O)O)N3c3cc(C(F)(F)F)ccc3OC)CC2)c1,0.494,12.4%,3.27,-18.8%,2.59%
Cc1ccc(CNC(=O)c2ccc3c(=O)nc4c(-c5cccc(C)c5)n[nH]n4c3c2)cc1,-14.3,3.68%,0.182,-5.25%,-5.03%
CC(=O)c1ccc2c(c1)N(CCCN(C)C)c1ccccc1S2,-7.52,3.67%,-8.62,-30.4%,7.51%
COc1cccc(-c2cc(=O)c3ccccc3o2)c1N,-19.7,2.29%,-6.57,-12.9%,-3.48%
CC1(C(=O)NC2CCCCC2)Cn2nc(-c3ccco3)cc2C(=O)N1c1ccc(F)cc1F (stereo not drawn),4.45,-2.48%,4.49,5.45%,0.321%
COc1ccc2nc([C@H]3CCN(C4CCCCC4)C3)[nH]c2c1,-7.32,-4.49%,-56.9,-23.4%,-10.7%
COC(=O)c1cc2n(n1)CC(C)(C(=O)NC1CCCCC1)N(c1ccc(C)cc1)C2=O (stereo not drawn),4.96,0.099%,7.7,4.41%,5.6%
CCCn1cnc2c(NCc3ccccc3)nc(N[C@H](CC)CO)nc21,1.66,4.83%,13.6,-14.8%,2.92%
O=C(c1cc(F)ccc1F)N1CCCC(Cc2noc(-c3ccccc3)n2)C1 (stereo not drawn),-2.4,1.49%,0.27,-5.18%,-3.61%
O=c1cc(N2CCOCC2)nc2c3ccccc3ccn12,-28.2,-9.19%,-29.5,-28.4%,-17.9%
NC(=O)c1cccc2cn(-c3ccc([C@@H]4CCCNC4)cc3)nc12,-7.4,-1.09% and -6.43%,-62.1,-59.8% and -25.9%,-16.2% and -32.3%
O=c1[nH]c2cc([N+](=O)[O-])c([N+](=O)[O-])cc2[nH]c1=O,-1.61,10.5%,9.46,-4.81%,2.78%
COc1ccc(Nc2cnc3ccc(-c4ccc(F)cc4)nn23)cn1,-10.4,-4.63%,-9.96,-3.08%,-20.5%
CCNC(=O)NC1(CCOC)CCN(S(=O)(=O)c2cc(OC)ccc2OC)CC1,4.19,0%,14.4,4.92%,8.58%
CC(C)[C@@H]1CN(C(=O)CCCn2cncn2)C[C@H]1NS(=O)(=O)N(C)C,-4.22,-8.96%,-1.94,-16.5%,-12.7%
COC(=O)c1cc2n(n1)CC(C)(C(=O)NC1CCCC1)N(Cc1ccccc1OC)C2=O (stereo not drawn),-6.41,-0.425%,0.832,-3.49%,-2.02%
COc1ccc(-n2c(=O)[nH]c3cc(C(=O)NCc4ccc(Cl)cc4)sc3c2=O)nc1OC,-8.98,-1.6%,7.65,-36.7%,2.85%
COC1OC(=O)C2=C1C1(C)CCCC(C)(C)C1CC2O (stereo not drawn),4.24,3.6%,10.3,-11.2%,3.66%
O=C(CCc1ccc(O)cc1)c1c(O)cc(O)cc1O,-13.4,2.13%,1.2,-10.8%,-3.34%
C=CC1(C)CC2CCC3C(C)(C(=O)O)CCCC3(C)C2=CC1=O (stereo not drawn),5.63,4.28%,11.4,-9.85%,0.55%
N#Cc1cccc(-c2c[nH]c3ncnc(N4CCOCC4)c23)c1,-81.1,-58.2%,-88,-73.1%,-69.4%

SMILES,"activity change, negative = inhibition [1] [%]","activity change, negative = inhibition [2]","activity change, negative = inhibition [3] [%]","activity change, negative = inhibition [4]","activity change, negative = inhibition [5]"
COc1cc(OC)cc(-c2onc(C)c2C(=O)NCc2ccccc2C)c1,-5.78,-5.26%,-3.95,-11.2%,-5.95%
O=C(NCCCc1ccccc1)C1CCCCN1Cc1ccc(-c2ccsc2)cc1 (stereo not drawn),-6.74,-9.65%,-5.19,-10.1%,-8.89%
Oc1cccc(Nc2ncnc3sc4c(c23)CCCC4)c1,,-9.7%,,-49.7%,-23.1%
O=C1NC2(CCN(C(=O)c3cccnc3)C2)Oc2ccccc21 (stereo not drawn),-5,-8.12%,-1.8,-10.8%,-9.41%
Cc1noc(C)c1Cc1ccc(C(=O)N2CC(N(C)Cc3cccnc3)C2)o1,-6.29,-0.427%,-0.819,-6.76%,-1.29%
CN(C)C(=O)c1ccc(OC2CCN(C(=O)c3ccc(C(F)(F)F)cc3)CC2)nc1,-3.07,6.41%,2,-3.97%,12.9%
CC(=O)C1=C(O)C=C2Oc3c(C(C)=O)c(O)c(C)c(O)c3[C@]2(C)C1=O,-1.39,7.75%,8.2,-5.81%,9.57%
O=C(NC1CCCC1)c1cc(-c2cccc(C(F)(F)F)c2)c2cccn2n1,-10.1,-10.6%,-6.44,-11.8%,-7.6%
Cc1nc(N)ncc1C(=O)N(C)Cc1cn[nH]c1-c1ccccc1,6.64,0.139%,0.606,2.86%,-12.6%
COc1cccc(CNC(=O)N2Cc3c(sc4c3CCCC4)-n3cccc3C2c2cccc(F)c2)c1 (stereo not drawn),-5.08,1.26%,1.25,-10.9%,-0.756%
Cc1cccc(C2c3cccn3-c3sc4c(c3CN2C(=O)NC(C)C)CCCC4)c1 (stereo not drawn),-9.17,7.44%,2.84,-14.8%,-1.73%
CC(=O)OCC1=C[C@@H]2OC(=O)C3=CO[C@@H](O[C@@H]4O[C@H](CO)[C@@H](O)[C@H](O)[C@H]4O)[C@H]1[C@@H]32,4.38,5.97%,7.56,-7.61%,2.64%
CC1(C(=O)NC2CCCCCC2)Cn2c(ccc2-c2ccco2)C(=O)N1CCc1ccccc1 (stereo not drawn),-8.7,3.22%,-4.58,-10.1%,-3.85%
Clc1ccc2c(c1)C1C=CCC1C(c1cccc3ccccc13)N2 (stereo not drawn),-12,-4.72%,-10.7,-15.6%,-12%
Cc1ccc(F)c(OC2(C(=O)O)CCN(S(=O)(=O)c3cnn(C)c3)CC2)c1,0.617,-0.105%,0.293,4.42%,2.48%
O=C(/C=C/N1C[C@@H]2C[C@@H]1CN2c1ccccn1)c1ccccc1O,-4.3,-1.66%,2.65,-17.1%,-2.46%
Cc1cccc(-c2n[nH]n3c2nc(=O)c2ccc(C(=O)NCc4ccc5c(c4)OCO5)cc23)c1,-15.1,3.27%,-2.91,-5.14%,-7%
COc1ccccc1CNc1nc2c(-c3ccccc3)nnn2c2ccccc12,1.62,0.388%,-1.13,0.667%,-3.51%
CN(CC(=O)N(Cc1ccc(C2CCCCC2)cc1)c1ccc(C(=O)O)cc1)S(=O)(=O)c1c(F)c(F)c(F)c(F)c1F,-74.8,-8.4%,-3.66,-52.3%,4.31%
CN[C@@H]1[C@H](O[C@H]2[C@H](O[C@@H]3[C@@H](O)[C@H](O)[C@@H](N=C(N)N)[C@H](O)[C@H]3N=C(N)N)O[C@@H](C)[C@]2(O)CO)O[C@@H](CO)[C@H](O)[C@H]1O,-0.857,-0.593%,5.71,-5.24%,1.86%
